Values belong to the binder of their own block, whether it stands above or below them.
How the values were obtained:
[1] = molecular target: T1, human PD-L1 recombinant protein (human, UniProt Q9NZQ7 part only); test: BLI, human PD-L1 recombinant protein
T1 construct: also called recombinant PD-L1 protein; recombinant PD-L1

[2] = molecular target: T2, PD-L1-mFc (human, UniProt Q9NZQ7 part only); test: competition ELISA: PD-1-hFc coated, hzF2 dilutions with 0.5 µg/mL PD-L1-mFc, anti-mouse Fc detection
T2 construct: range 19-238; not shown: mouse Fc (mFc)
Protocol: Human PD-1-hFc (PD-1 Sequence No. NP_005009.2, 21aa-167aa) was diluted with PBS to 0.5 µg/mL, coated on an ELISA plate overnight at 4° C. Then the plate was blocked with 5% BSA for 60 min at 37° C. in a thermostatic incubator. Gradient dilutions of hzF2 and control antibody KN035, and an isotype control NC-hIgG1 (initial working concentration of 50 nM, 1.5-fold dilution to 10 concentration gradients), were added, then PD-L1-mFc (PD-L1 Sequence No. NP_054862.1, 19aa-238aa) was added at a working concentration of 0.5 µg/mL, co-incubated and reacted in a thermostatic incubator at 37° C. for 60 min. The plate was washed 4 times with PBST; then added 1:5000 diluted HRP-anti-mouse Fc (Cat.:115-035-071, Jackson Immuno Research) thereto, reacted for 45 min, and added TMB (Beijing Taitianhe Biology, Cat.: ME142) substrate to develop color for 15 min. After adding 2 M HCl to stop the reaction, the plate was read and recorded about the absorbance value of A450nm-630nm of the well plate by a reader taking 630 nm as the reference wavelength, and 450 nm as the detection wavelength.

[3] = molecular target: T3, human PD-L1 expressed on the cell surface (human, UniProt Q9NZQ7); test: cell-based or functional assay
[4] = molecular target: T4, monkey PD-L1 recombinant protein (monkey); test: BLI (Octet QKe), antibody captured on AHC probe, antigen 60 nM
T4 construct: also called recombinant monkey PD-L1
Protocol: (§1) The Octet QKe system instrument from Fortebio Company was used to determine whether chF2 could bind to recombinant monkey PD-L1 and recombinant murine PD-L1 by using the capture antibody (AHC) biological probe of anti-human antibody Fc segment to capture the Fc segment of the antibody. During the measurement, chF2 was diluted to 4 µg/mL with PBS buffer and flowed over the surface of AHC probe (PALL, Cat.: 18-0015) for 120 s. The monkey PD-L1 recombinant protein and the murine PD-L1 recombinant protein were used as mobile phases to interact with the antibodies captured on the surface of the chip. The PD-L1 recombinant protein concentration was 60 nM. The binding time of each antigen was 300 s, and the final dissociation time was 300 s.

[5] = molecular target: T1, human PD-L1 recombinant protein; test: BLI (Octet QKe), antibody captured on AHC probe, PD-L1 60 nM
Protocol: Using the Octet QKe system instrument from Fortebio Company, the ability of chF2 to bind corresponding recombinant antigen was determined by using the capture antibody (AHC) biological probe against the Fc fragment of the human antibody to capture the Fc fragment of the antibody. During the measurement, chF2 was diluted with PBS buffer to 4 µg/mL, and flowed over the surface of AHC probe (Cat.: 18-0015, PALL) for 120 s. A human PD-L1 recombinant protein was used as the mobile phase to interact with the antibody captured on the chip surface. The recombinant PD-L1 protein concentration was 60 nM. The binding time for each antigen was 300 s, and the final dissociation time was 300 s.

[6] = molecular target: T5, murine PD-L1 recombinant protein (murine, UniProt Q9EP73 part only, limits assumed); test: BLI (Octet QKe), antibody captured on AHC probe, antigen as mobile phase
T5 construct: also called recombinant murine PD-L1
Protocol: as §1

[7] = molecular target: T3, human PD-L1 expressed on the cell …; test: flow cytometry on CHO-PD-L1-CD3L cells, FITC anti-human Fc
Protocol: Cells (CHO-PD-L1-CD3L cells) were collected after centrifugation, divided into 5×10⁵ cells/sample/100 µL. Gradient diluted single variable domain antibody was added to the cells at a final concentration of 66 nM as the highest concentration, 3-fold serial dilution to make 10 gradients; then incubated on ice for 2h. The cells were washed twice with ice-cold PBS (containing 0.05% Tween). FITC-labeled anti-human Fc secondary antibody (Cat.: F9512, Sigma) was added, and incubated on ice for 1h. The cells were washed twice with ice-cold PBS (containing 0.05% Tween), resuspended in 200 µL of Flow Cytometry Buffer, and the mean fluorescence intensity (MFI) of the cells was detected by flow cytometer (Model B49007AD, SNAW31211, BECKMAN COULTER).

T1 sequence (Q9NZQ7 19-238 limits assumed): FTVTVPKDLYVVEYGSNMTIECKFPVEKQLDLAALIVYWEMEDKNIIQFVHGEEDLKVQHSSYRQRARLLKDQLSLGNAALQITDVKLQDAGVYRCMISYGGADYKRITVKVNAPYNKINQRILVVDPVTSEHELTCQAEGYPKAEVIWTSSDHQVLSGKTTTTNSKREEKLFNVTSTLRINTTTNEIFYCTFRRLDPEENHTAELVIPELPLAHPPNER
Sequence of PD-L1-mFc (Q9NZQ7 19-238 limits assumed): as above
T5 sequence (Q9EP73 19-238 limits assumed): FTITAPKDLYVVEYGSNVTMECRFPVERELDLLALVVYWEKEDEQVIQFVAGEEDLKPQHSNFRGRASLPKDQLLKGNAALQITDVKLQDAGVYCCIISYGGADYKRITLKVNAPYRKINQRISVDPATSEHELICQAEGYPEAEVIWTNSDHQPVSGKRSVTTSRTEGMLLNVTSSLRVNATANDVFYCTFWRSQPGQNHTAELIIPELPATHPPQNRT

Kd [1]: 1.4 nM | koff [1]: 0.000305 s⁻¹ | kon [1]: 218000 M⁻¹ s⁻¹ | IC50 [2]: 4.3 nM | Reporter Gene Assay (Jurkat-PD1-NFAT cells and CHO-PD-L1-CD3L cells), luciferase RLU, EC50 [3]: 5.45 nM
B1: VHH-F2-human-Fc humanized antibody (Fc fusion)
chain: EVQLVESGGGLVQPGGSLRLSCAASRDSDDGASCMGWFRQAPGKGLEGVAIIFNAGERTDYGDSVKGRFTISRDNAKNTLYLQMNSLRAEDTAVYYCATVWCGSWVARSWGQGTLVTVSSAS[gap - human IgG1 Fc with changes]
notes: Full-length chain; also called hzF2; HzF2

Kd [4]: 1.4 nM | koff [4]: 0.000305 s⁻¹ | kon [4]: 218000 M⁻¹ s⁻¹ | Kd [5]: 1.11 nM | koff [5]: 0.000248 s⁻¹ | kon [5]: 224000 M⁻¹ s⁻¹ | binding result [6]: no binding (tested: 60 nM) | EC50 [7]: 1.04 nM
B2: VHH-F2-human-Fc chimeric antibody (Fc fusion)
chain: QVQLQESGGGSVQTGGSLRLACAVSRDSDDGASCMGWFRQAPGKGREGVAIIFNAGERTDYGDSVKGRFTISQDNAKNTLFLQMNSLKPEDSAMYYCATVWCGSWVARSFGQGTQVTVSSAS[gap - human IgG1 Fc with changes]
notes: Full-length chain: camel VHH-F2 variable region fused to human IgG1 Fc, expressed in 293F cells; also called chF2; human-camel chimeric single variable domain antibody

From patent US20230279115A1 (MABWELL SHANGHAI BIOSCIENCE, published 2023)
